According to the supplement of paper PMC11417369:
The other results are listed elsewhere or left out.

What follows are sequences tested on PfSIP2 AP2 domain 1 (GST-tagged) (assay: gcPBM binding intensity (ln(normalized median fluorescence intensity)); higher = stronger DNA binding).
Outline: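 GST-tagged P. falciparum DNA-binding domains produced in E. coli were incubated for 1 h on an Agilent 4 × 180k array of primer-extended double-stranded 36-bp intergenic genomic probes with negative controls. Binding intensity is the highest Masliner-normalised natural-log median intensity across replicate spots of either probe orientation, with bound protein detected by Alexa488 anti-GST antibody at 488 nm.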

Row | Sequence | gcPBM binding intensity (ln)
1 | GTACATATATACATTACACACGGTTTGATTTAAAAA [CACACA_site3379] | 7.26
2 | TCTTTTAAAAAAAAAGGAGGAACATAAAAAGTAGAA [XGTACX_negctrl_site272] | 7.26
3 | AACAAACACGGACACACACACACACTAGAATGATTA [CACACA_site5364] | 7.31
4 | AAAAATTTAAGTGGGGGTACATTTTTTTAACACCTT [XGTACX_site1093] | 7.31
5 | ATATTTAAATGTAATACATGCAAATTTGAACATTTT [TGCATGCA_site736] | 7.08
6 | TAATATATTAACATGGGTACATATTATTTCATGTGT [XGTACX_site5985] | 7
7 | AAAAAAAAAAAAATCACACATATGTATTTATATATA [CACACA_site5790] | 6.91
8 | TTTAATTTTTTTAATTCACACATTATTCCATCCTTT [CACACA_site5480] | 6.9
9 | AATAAATAAGCAACATGTACATACAAATATATACAT [XGTACX_site8529] | 7.11
10 | ATTTTCCATTGTGCTACACACAACGGTTCGCAATAA [CACACA_site2974] | 7.1
11 | ATCTAATAAAAATACACACACATATGATTTGTGAAT [CACACA_site1867] | 6.86
12 | TAAAAAAAATAGTCAAGTACATAAGAAGGGAAGAAA [XGTACX_site8733] | 7.02
13 | TTATTCATATTATCATGTACTTATATATATTGTCAT [XGTACX_site2231] | 7.01
14 | ACTAAAAGATATATAATTTCTTTCTTATTTATTTTT [CACACA_negctrl_site842] | 6.82
15 | AAAAAAACATGAAACACACACAAATATTTATTTATA [CACACA_site6967] | 6.91
16 | TGTTTCCAAAAAAAAAAAAAAAAAAAAAAAAAAAAA [CACACA_negctrl_site358] | 7.1
17 | TTTTGTTTATTATGATTCAAAATGATTTTATCTTTG [TGCATGCA_negctrl_site425] | 6.71
18 | TATTATATATATAAATGTACTTATTTTAATTCCCCT [XGTACX_site8638] | 7.07
19 | TGTAATATAAAATTTTGTACTCAAAAATTTATATAT [XGTACX_site3252] | 7.12
20 | ACTTATAAAAACATATACCCCATCGCATTTTTTCCA [XGTACX_negctrl_site177] | 6.9
21 | AATTTTTTATATGTCACACATTTATTATTATTATTA [CACACA_site4198] | 6.9
22 | TTTATTAGTAATTATACACACATATAAAATGAATAA [CACACA_site6754] | 7
23 | TATATTTATAGGTACACACACACATATAAATAAATA [CACACA_site6345] | 7.42

Row | Sequence | gcPBM binding intensity (ln)
24 | ATAAAATTATATTTTGCATGCAGGCCTTTTTCTTAA [TGCATGCA_site1030] | 6.76
25 | AAAAAAAAAAAAAACACACACATATATATATATATA [CACACA_site1891] | 9.44
26 | TTCCAAAAAGTTATTACACACATATGTGCACATATA [CACACA_site6465] | 9.48
27 | TTCCAAACCTCATTATGGAAAATAAAAAAATAAAAA [XGTACX_negctrl_site17] | 6.87
28 | ATAAAATATTTTTGAACATGCAGGTAAAAAATAAAA [TGCATGCA_site1019] | 7.05
29 | AGAATATTATATTATGCATGCATATAGAAAAATATA [TGCATGCA_site302] | 7.1
30 | TGTATAAGTATTAATACACACACAAAATAATAAAAA [CACACA_site9156] | 7.18
31 | TACTTACATTATTTATTTATATAAAAAGTTAATTAT [XGTACX_negctrl_site433] | 7.04
32 | ATAATTAACAAATACACACACACACCCCCACAAAAA [CACACA_site518] | 8.73
33 | AGTATTCATAAAAATACACACATGGAAAAATAAACT [CACACA_site6796] | 7.1
34 | AAATTAAAATATAATACACACATAAAAAAAAAAAAA [CACACA_site4183] | 6.86
35 | TATATATTTTTTTTTTGTACTCACAATATATGTATG [XGTACX_site8024] | 6.99
36 | TATGTGTAATATTTTTGTACAGAAAAAAAAAAAAAA [XGTACX_site7075] | 7.14
37 | AAAAAAAAAAAAAACACACACATGCACATCATATTA [CACACA_site4467] | 7.43
38 | TCATTTCACAGACACACACACACAATATATTTCCTT [CACACA_site9295] | 7.17
39 | ATATTTTTATTAGTAGTGCAATTTAGTGTATATATA [GTGCAC_site9542] | 8.39
40 | AAAAAAAAAATTAAAACATGCATAAATAAATATATT [TGCATGCA_site866] | 6.71
41 | AAAAAAAAAAAATATACACACTAATATATTTTTTTA [CACACA_site4604] | 6.97
42 | TATTTAAAAAGAAAAAAAAAAAAAAAAATACATATA [CACACA_negctrl_site164] | 6.59
43 | TATTAAATTTATCGGAGTACATTTAAATGTATATAC [XGTACX_site7975] | 7.13
44 | TATATACGCAAACACACACACACATACACCCACATA [CACACA_site1724] | 7.16
45 | TATTACTATGTTATAACTTTTTTAAACGTGATCATA [TGCATGCA_negctrl_site128] | 6.8
46 | CTATTTATTTTTGATGCATGCCAAATATAGAAAAAA [TGCATGCA_site368] | 7.08

Row | Sequence | gcPBM binding intensity (ln)
47 | CGTATAAATATACGTGCATGTAACTTTTTCTATATT [TGCATGCA_site981] | 8.32
48 | TAGTAGTTATCACTAACATGCAATAATATTATTTAA [TGCATGCA_site161] | 6.89
49 | TGACTGTAGATATTTTGTACATAACCTAATATATAT [XGTACX_site970] | 7.18
50 | TACAGTTCAATGAAGGTGCAATTAATATATAAAATA | 10.2
51 | ATAATATAATACGAAGGTACACATTTTCTTAATATA [XGTACX_site7947] | 6.78
52 | TTATGTACAATTTCTTCTTTCTTTTTTCCTAAAGAC [CACACA_negctrl_site1193] | 6.92
53 | TTTTTTTTTTTTTTTTGTACACATAATATGAATAAT [XGTACX_site2661] | 7.21
54 | ATAACATATATATATACACACACATATATATATGAA [CACACA_site7983] | 7.22
55 | ATATATTTTTTGAATACACACATATTATAGGTAATA [CACACA_site6709] | 7.03
56 | TTTTTTTTTCTTTTCAAACACACAATTGGTATATAT [CACACA_site3321] | 6.82
57 | TTTTCCTTTTTGGAATGTACACATATATATTAAATG [XGTACX_site4700] | 6.89
58 | AAATATAATATATGCACACATACATACATATATATA [CACACA_site104] | 7.73
59 | TAATTAAATATTTTCCTACAATTAATAAGAAAAGGA [XGTACX_negctrl_site565] | 7.02
60 | AAGAATAATAACAAATGTACTTATATAAAGTATTAT [XGTACX_site2336] | 7.08
61 | TATTAAGAAGAAAATTCACACATTTGTACCTCTCTT [CACACA_site4822] | 6.62
62 | CAGCTCTTAAAAATTACACACATATACGCATATATA [CACACA_site3267] | 7.15
63 | TTACAAAAATGTGGTTGTACACAAACAAAAAAAATA [XGTACX_site8506] | 7.06
64 | GAAAATAGCTAAAATACACACAATTAAAAGTTATTA [CACACA_site7614] | 6.62
65 | TATAAATAGATATATACACACATGAAAATAAATAAA [CACACA_site7228] | 7.01
66 | TATAATATAATATATGCACACAAATATGTATATATG [CACACA_site8664] | 7.15
67 | AACTATATATAACTAGTGCAAAGACAATATTTTAAA | 8.03
68 | AAAATTTAATATAATGCACACATAAAAAAAAAAAAT [CACACA_site8425] | 7.69
69 | TTCTTTAAAATAAATTGTACTAACATATATATATAT [XGTACX_site6045] | 9.61

Row | Sequence | gcPBM binding intensity (ln)
70 | TTGTTTATTTTTTATTACTATAAAGATGTTATATAT [CACACA_negctrl_site1506] | 7
71 | TATATAAATATATATGTACACACATATACATGTTGA [CACACA_site9022] | 7.09
72 | ATAATATCTTTATGTGTGCACATATATATATATATA | 9.64
73 | TTTTTTTTTTTTTTTGCACACTTGATTTGAGCTTAT [CACACA_site4042] | 7.41
74 | AAAATAAAAATACACATTTTTTTTTTTTTTTTTTTT [TGCATGCA_negctrl_site515] | 8
75 | TTTTTTTTTGTTTACACACCCAAATCACATACATAT [CACACA_site4052] | 7.26
76 | TAAATAATTTATAAGTGTACTATTATTGCACGAATA [XGTACX_site7715] | 7.94
77 | AAAAAAAACAGACACACACACATAAATATATATAAA [CACACA_site148] | 6.95
78 | ATGATTTTTTCTGTATGTACATAAAAATAAAATTCT [XGTACX_site5698] | 7.02
79 | CATTAGGTCTTTTGTACATGCAAGTGTGTGCGTAAA [TGCATGCA_site255] | 7.46
80 | ACACATATGCATATATGTACATAATATATTAAACTT [XGTACX_site5975] | 7.06
81 | TAAAAAATAAATATATGTACGCAATAAATGTGTTAA [XGTACX_site4043] | 7.13
82 | AAAAAAAAAAGACACACACACACACTAATACATACA [CACACA_site6473] | 6.98
83 | AAAAGTGATGAGACAAGTACTAACATATTATTATTA [XGTACX_site1533] | 6.65
84 | TTTTCTGTATAAACTTGTACATATATTTCCTTGTTT [XGTACX_site5745] | 6.96
85 | AAATATATATGTATATGTACTTATTTATTTAAAAGG [XGTACX_site4093] | 7.07
86 | TTTATTATATATAAAAGTACACATTGTAAGGAAACA [XGTACX_site8560] | 7.53
87 | ATACCTATTTGATGAGTGCATTATCCAATATATGTA | 9.53
88 | ATGTTTTACAAAAACACACAAATGAATATAAACATA [CACACA_site6667] | 6.88
89 | AAATAAAATATCAATTAAAACAGAATTGAATTTTTA [CACACA_negctrl_site181] | 6.6
